Laboratory results taken from PMC12136788.
Positions count from the first letter of the chain named. This is one part of the list.

T1: UNK ZnF1-6 (called full-length) (human, UniProt Q9C0B0 30-357)
T1 sequence: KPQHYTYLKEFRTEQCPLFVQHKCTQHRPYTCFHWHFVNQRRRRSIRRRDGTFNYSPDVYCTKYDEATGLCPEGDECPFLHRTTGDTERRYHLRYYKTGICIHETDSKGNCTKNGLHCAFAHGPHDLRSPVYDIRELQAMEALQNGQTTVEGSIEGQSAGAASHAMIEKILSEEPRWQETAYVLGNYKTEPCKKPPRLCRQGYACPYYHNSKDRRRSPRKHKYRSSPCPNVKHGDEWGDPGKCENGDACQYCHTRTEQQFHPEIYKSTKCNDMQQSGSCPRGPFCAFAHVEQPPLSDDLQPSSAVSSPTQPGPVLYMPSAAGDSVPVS

B1: ENSG00000198589:be:win_2751|CDS|ENSG00000198589|bound_else_gene|NA|bound_elsewhere_windowed (ssRNA)
RNA: GGGAGUUCUACAGUCCGACGAUCAAUCACUCAUUCAAAGGUCACUUUUGAAAUACACAAAGAAAACCUUGCCAAUAUAUUUAGGGAACAGCAAGGAAAAGUUGAUGAAGAAAUAGGGCUGUGUUCUUCAACUUCAGUUCAAGCCAACAGAGGAUUGAGCAUCA
B2: chr4:78448087:78448188:+|CDS|ENSG00000138759|msi1|total|mutant (ssRNA)
RNA: GGGAGUUCUACAGUCCGACGAUCGCCUCUGGAGAAUGGGAGAGUUUCCGUCCAGGGCUCAACCUUCACCUACCAGGAUAUCCCCGCUGGGCUGGUUGGGUAUGUGCCCCGUGUCCCUGGCAUGGUCGUGGAUGAGUUCCAGUUCAACAGAGGAUUGAGCAUCA
B3: chr2:96252317:96252350:-|3pUTR|ENSG00000135956|msi1_unk|FALSE|overlapping (ssRNA)
RNA: GGGAGUUCUACAGUCCGACGAUCGUGUCCCCUGCUGAGCUGAAAAGGAAAUGGAUUCCAAUCUCUUCCAACCUUUAAGGUGAUAGAUAGUUUGAGCAAGACUGGAGAAUGGACAACACUAUGAAGCUGUGGCUAGAAAGGGACCAACAGAGGAUUGAGCAUCA
B4: chr12:30629720:30629821:-|3pUTR|ENSG00000133704|msi1|total|mutant (ssRNA)
RNA: GGGAGUUCUACAGUCCGACGAUCCUUCUUGCUUUCUCACCUAUUUGAAUUUUCUCCUACCUAAUUUGUUUGUGUCUUUAUUACCGCUCAGUUUGACUUCUCAAACUUUUCAAGGGUUGGGGCAGCUGCACUUUCCGGUUGCCUCAACAGAGGAUUGAGCAUCA
B5: chr12:109554177:109554278:-|3pUTR|ENSG00000139428|unk|total|mutant (ssRNA)
RNA: GGGAGUUCUACAGUCCGACGAUCUUGCUAUGUGCAGUGCCCUGAGCCAAGUGUUCCACAGACAUUAUCUCAUUUGAACCCCACCGCAGCCCUGGAAGGAGGCAUUGGGUGGGGAACCAAGUUGUCCUGGGGAGUCAGUGCCAACAACAGAGGAUUGAGCAUCA
B6: chr2:130462818:130464144:-|CDS|ENSG00000196834|control|control|control (ssRNA)
RNA: GGGAGUUCUACAGUCCGACGAUCACCACCAUGUACCCUGGCAUGGCCCACAGAAUGCAGAAGGAGAUCGCUGCCCUGGCGCCUAGCAUGUUGAAGAUCAGGAUCAUUGCUCCUCCCAAGCGCAAGUACUCCGUGUGGGUCGGUCAACAGAGGAUUGAGCAUCA
B7: chr6:132328510:132328611:-|CDS|ENSG00000079931|msi1|FALSE|unique (ssRNA)
RNA: GGGAGUUCUACAGUCCGACGAUCUUGUGGGAUGUUGUAGGGUGGUCUUAUUUAUUGUGUCCUCCCUCUCAUUUAUGUUCGUGUAGGUUGAGCCAGUGAUACAGAGAGGCCAUGAGAGUCUGGUGCACCACAUCCUGCUCUAUCCAACAGAGGAUUGAGCAUCA
B8: ENSG00000198589:be:win_8151|CDS|ENSG00000198589|bound_else_gene|NA|bound_elsewhere_windowed (ssRNA)
RNA: GGGAGUUCUACAGUCCGACGAUCAGACUUGUUGAGGACCUUGGAGGGUCCUGAAAACUGCCUGAAACCAAAACUCAUUCAGGCUUCAAGAGAGGGUCAUUGUGUCAUAUUCUAUGAAAACGGCCUCUUCUGUACAUUCAGUGUCAACAGAGGAUUGAGCAUCA
B9: chr10:119167843:119167906:-|3pUTR|ENSG00000165672|msi1_unk|total|mutant (ssRNA)
RNA: GGGAGUUCUACAGUCCGACGAUCUGCAUGAUCCCUCAUCCCUGAAAUUGAGUUUAUGCCGUCAUUUUACUUAUUUUAUUCAUCCGCUAACUUUGUCUAUGUAUAUUUCCCGAUAUUGAUCCGUGUAAUCGAUUAUAAAGGAUACAACAGAGGAUUGAGCAUCA
B10: chr9:125307754:125307855:+|CDS|ENSG00000165219|unk|FALSE|unique (ssRNA)
RNA: GGGAGUUCUACAGUCCGACGAUCGGCUCUUGACAAUUUAUUGGCAAACCUACCCCCGGCCAAGCCAGGAAAAAGUAGCAGUUUAGAAAUGACUCCCUACAAUACACCUCAGCUAUCUCCAGCAACCACUCCAGCAAAUAAAAACAACAGAGGAUUGAGCAUCA
B11: ENSG00000136451:be:win_2601|3pUTR|ENSG00000136451|bound_else_gene|NA|bound_elsewhere_windowed (ssRNA)
RNA: GGGAGUUCUACAGUCCGACGAUCCACUAACUAGGUAGUGUAUGCCCCUUCAGAACAUGCAGAGUGUAUCUUUUUUUAAAUUUCUCCUUCCGUUUCUUAAGUAUUGCGCAGAUUUGUUCAACUUUGUAAAUAUGGACAUCACUUCAACAGAGGAUUGAGCAUCA
B12: chr1:209614869:209615270:-|three_prime_utr|ENSG00000196878|control|control|control (ssRNA)
RNA: GGGAGUUCUACAGUCCGACGAUCUUCCAUCUCCAGGAGACUUUCAUGCAGCCUAAAGUACAGCCUGGACCACCCCUGGUGUGUAGCUAGUAAGAUUACCCUGAGCUGCAGCUGAGCCUGAGCCAAUGGGACAGUUACACUUGACAACAGAGGAUUGAGCAUCA
B13: ENSG00000090857:stop:overlap|stop_codon|ENSG00000090857|stop_codon|NA|stop_codon (ssRNA)
RNA: GGGAGUUCUACAGUCCGACGAUCGGUGGAUGGAGAAACAUGGAUUUGAGAGGCCAAAGUACUUUGUUCCCCCCGACAAGGGCUAGAAUGUGUUCACAGAAGAAAAAGAACCACGUGGACUACACUAAACUCUACAGGGCCUUGCAACAGAGGAUUGAGCAUCA
B14: chr6:7881277:7881391:+|3pUTR|ENSG00000153162|unk|total|mutant (ssRNA)
RNA: GGGAGUUCUACAGUCCGACGAUCGCUGUUUAUGAACGGAAAUCAUGAUUUCCCUUGCCGAAAGUGAGGCUCAGAUUAAAUUUCCGAAUAUUUUCUAAAUGUCUUUUUCACAAUCAUGUACUGGGAAGGCAAUUUCAUACUAAACAACAGAGGAUUGAGCAUCA
B15: chr3:170465896:170466000:-|3pUTR|ENSG00000013293|unk|total|mutant (ssRNA)
RNA: GGGAGUUCUACAGUCCGACGAUCACUCCGGCCGUUGCAUUCCAUGAGAUCACAUUUCACUUCUGAACCUUAUUCCUUGGGGCCCGCUCACUUUCAGAGGUGUAUUUUUUUUUCCUGUUAUUUCCCAGAGCCGUUUCACUGAAGCAACAGAGGAUUGAGCAUCA
B16: chr7:5977587:5977790:-|CDS|ENSG00000122512|control|control|control (ssRNA)
RNA: GGGAGUUCUACAGUCCGACGAUCCAAAAUUGUAUUCUUUUAGCUCCAGUCACUGAAAGGGCUAAACUGAUUUCCUUGCCAACUAGUAAAAACUGGACCUUCGGACCCCAGGACGUCGAUGAACUGAUCUUCAUGCUGAGCGACCAACAGAGGAUUGAGCAUCA
B17: chr3:23954599:23954720:+|CDS|ENSG00000174738|unk|total|mutant (ssRNA)
RNA: GGGAGUUCUACAGUCCGACGAUCAGUGAGGGUUCUGAGAACCGUUUCCAGUCCUCCUCCUCUUCUGUUCCAUCUUCUCCAAACCGCUCUAAUUCUGAUACCAAUGGUAAUCCCAAGAAUGGUGAUCUCGCCAAUAUUGAAGGCCAACAGAGGAUUGAGCAUCA
B18: chr19:10690846:10690947:+|3pUTR|ENSG00000129351|msi1|FALSE|bound_elsewhere (ssRNA)
RNA: GGGAGUUCUACAGUCCGACGAUCGAAAGAGGUGAAAGAACAAGUUGUGUGCUAGAAAACUUUUGAGGAAUUCUUAUUUGUGUUAGAGCAGAGGAGGUCCCAGAUACCAAGUGGCGCCUCCCAGGAAAGGCUGGGAGAAGAGGUCAACAGAGGAUUGAGCAUCA
B19: chr11:35726083:35726184:+|CDS|ENSG00000166326|msi1|total|mutant (ssRNA)
RNA: GGGAGUUCUACAGUCCGACGAUCGAGGCAAUGGCCACAGCUCAUGUGACUGAGAUACUGGCAGACAUCCAAUCCCACAUGGACCGGUUGAUGACUCAGAUGGCCCAAGCCAAGGAACAACUUGAUACCUCUAAUGAAUCAGCUCAACAGAGGAUUGAGCAUCA
B20: chr9:124878635:124878736:-|3pUTR|ENSG00000136935|msi1|FALSE|unique (ssRNA)
RNA: GGGAGUUCUACAGUCCGACGAUCCCAGCCAUUGAACUGGUCCCACACGCACCCCAGGCCCCACUCCUCGGCAGUUUCAGGUGUAGCUGUGGGGCCCGUUCCUAGGUCUGUACUCACUUUAGGGAGGCUUCACUGACUAGGCUUCAACAGAGGAUUGAGCAUCA
B21: chr1:32075697:32075801:+|CDS|ENSG00000121775|unk|total|mutant (ssRNA)
RNA: GGGAGUUCUACAGUCCGACGAUCCGAGCUGCCAGUCCAGGCCAGCAUUCUGUUUGAGUUGCAGCUCUUCUUCUGCCAGCUCACCGCACUCUUCGUCCACUACAUCAACAUCUACAAGACAGUGUGGUGGUAUCCACCUUCCCACAACAGAGGAUUGAGCAUCA
B22: chr9:125307754:125307855:+|CDS|ENSG00000165219|unk|total|mutant (ssRNA)
RNA: B10 RNA with U75C, A76C, U83C, A84C

What follows are binders tested against T1, UNK ZnF1-6 (called full-length) (assay: nsRBNS (natural sequence RNA bind-n-seq); RBNS binding buffer (assumed for nsRBNS): 25 mM Tris pH 7.5, 150 mM KCl, 3 mM MgCl2, 0.01% Triton X-100, 500 ug/ml BSA, 20 U/ml SUPERase-In, 4 C; UNK is unkempt and MSI1 is Musashi-1; names of the RNAs are library labels; protein concentration not given here; high values mean tight binding).
Work on B1 yielded a binding signal of 0.508 enrichment R.
B2 gave a binding signal of 0.79 enrichment R.
B3 was tested, and the binding signal was 0.977 enrichment R.
Work on B4 yielded a binding signal of 0.697 enrichment R.
Binder B5 has a binding signal of 0.622 enrichment R.
In the case of B6, the binding signal is reported as 0.81 enrichment R.
Work on B7 yielded a binding signal of 0.69 enrichment R.
With B8 the binding signal was 0.381 enrichment R.
B9 showed a binding signal of 0.818 enrichment R.
With B10 the binding signal was 0.755 enrichment R.
B11 showed a binding signal of 1.27 enrichment R.
B12 showed a binding signal of 0.651 enrichment R.
In the case of B13, the binding signal is reported as 0.753 enrichment R.
Binder B14 has a binding signal of 0.508 enrichment R.
Binder B15 has a binding signal of 0.826 enrichment R.
For B16, the binding signal was 1.01 enrichment R.
With B17 the binding signal was 0.57 enrichment R.
In the case of B18, the binding signal is reported as 0.982 enrichment R.
B19 showed a binding signal of 0.555 enrichment R.
B20 showed a binding signal of 0.711 enrichment R.
B21 showed a binding signal of 0.524 enrichment R.
B22 showed a binding signal of 0.573 enrichment R.
